Measured values from the supplement of paper PMC10126150.
Sequences with one replicate were seen in a single cluster, so their values are uncertain.
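Also: ATP exposure 15 min at 22 °C before imaging.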

The sequences below were run on ATP (assay: switch fluorescence ratio, 500 uM ATP over buffer (Cy3 cluster intensity, sum of 5 cycles each) (fold (ratio)); higher = stronger signal-on switching upon ATP binding; sequences stand for … in TCGTCGGCAGCGTCAGATGTGTATAAGAGACAGTTTTTTTTTTTTTTTTTTTTTTTTT…TC). Conditions: aptamer strand: ATP DNA aptamer (quencher-CACCTGGGGGAGTATTGCGGAGGAAGG + anchor), 100 nM annealed; ATP concentration: 500 uM; one replicate.
In short: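 Clusters carrying Cy3-labelled switching strands on a modified Illumina MiSeq flow-cell were annealed to 100 nM quencher-labelled ATP aptamer and imaged in selection buffer. They were imaged again after 15 min with 500 uM ATP at 22 °C, over five buffer/ATP cycles with NaOH stripping and re-annealing in between. For each cluster, the fluorescence ratio is the summed Cy3 intensity of the target cycles divided by that of the buffer cycles, averaged per switch-domain sequence. Clusters outside 100-1000 RFU were left out.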
GAAGGAACGG was tested, and the switch fluorescence ratio was 0.975. ATCCTATGGG was tested, and the switch fluorescence ratio was 1. AAGGCAGAGG gave a switch fluorescence ratio of 0.979. TTGAGGAACC gave a switch fluorescence ratio of 0.968. GATGCTGGGA showed a switch fluorescence ratio of 0.965. GCGAAGAAT was tested, and the switch fluorescence ratio was 1. With TTTCGTGCCC the switch fluorescence ratio was 1.06. TGCCGTCTTT gave a switch fluorescence ratio of 1.03. ATTGTAACTC showed a switch fluorescence ratio of 0.958. GATGTGTTGC gave a switch fluorescence ratio of 0.989. For GGTCTGAGGC, the switch fluorescence ratio was 1.01. Work on CGGTTATGGG yielded a switch fluorescence ratio of 0.988. GCGTTGGCGG was tested, and the switch fluorescence ratio was 0.991. For CAGGGACCCA, the switch fluorescence ratio was 0.988. Work on CCTTAAGTAC yielded a switch fluorescence ratio of 2.98. Work on TGCGCTTTGC yielded a switch fluorescence ratio of 1.1. In the case of TGCGGTGGTA, the switch fluorescence ratio is reported as 1.02. ATCCGGTCAA showed a switch fluorescence ratio of 1.61. ACTTTGTGAT gave a switch fluorescence ratio of 0.974. CCCATAGCCG was tested, and the switch fluorescence ratio was 1.01. Work on GATTACCTGG yielded a switch fluorescence ratio of 1.02. With ACATAGGATA the switch fluorescence ratio was 1.04. Work on CATCGGACTA yielded a switch fluorescence ratio of 1.02. Work on CCGGTAAAAA yielded a switch fluorescence ratio of 1.08. In the case of CATTCTGCA, the switch fluorescence ratio is reported as 1.11. In the case of GGTGTTCGAT, the switch fluorescence ratio is reported as 0.967. Sequence CTATAGCTAT has a switch fluorescence ratio of 1.17. Sequence TTACACCCAA has a switch fluorescence ratio of 1.11. Sequence GGCTCCATGT has a switch fluorescence ratio of 0.998. For GAATAGGCTT, the switch fluorescence ratio was 0.993. GCTCATCAGT showed a switch fluorescence ratio of 1. Work on TCCTTAGTCC yielded a switch fluorescence ratio of 1.05. CACTGATTAC was tested, and the switch fluorescence ratio was 1.21. TCTGCCGGGG was tested, and the switch fluorescence ratio was 1. Work on TCGGACAATT yielded a switch fluorescence ratio of 1.08. With AGGCTGTTTC the switch fluorescence ratio was 1.04. ATTTCGCTTA showed a switch fluorescence ratio of 0.967. GACTGGACAA showed a switch fluorescence ratio of 1.05. ATATAAACGA gave a switch fluorescence ratio of 1.06. For ATGTTCGCCG, the switch fluorescence ratio was 0.952. GCTATGTGTG showed a switch fluorescence ratio of 0.963. Sequence GAGATATGGT has a switch fluorescence ratio of 1. CGGCGTCCTT gave a switch fluorescence ratio of 0.949. With TAAAAACCAG the switch fluorescence ratio was 1.08. Work on AGGTTCAAGA yielded a switch fluorescence ratio of 1.02. For CTCGTCTACT, the switch fluorescence ratio was 1.08. CCGTCTGAAG showed a switch fluorescence ratio of 1.05. With TAGTGCCTCC the switch fluorescence ratio was 2.81. In the case of GTGACCGCCT, the switch fluorescence ratio is reported as 1.04. For TTAAAGTG, the switch fluorescence ratio was 0.998. For ATTGATTTGA, the switch fluorescence ratio was 0.989. For TTCAGGATTC, the switch fluorescence ratio was 0.964. Work on TCTCGCGCAT yielded a switch fluorescence ratio of 3.65. With CAGCCATGCT the switch fluorescence ratio was 1.02. In the case of TTAACCCCTG, the switch fluorescence ratio is reported as 1.03. ATTCTGAGCC showed a switch fluorescence ratio of 1.07. Sequence GCTAACCGTC has a switch fluorescence ratio of 1.09. In the case of ACGGCGTCGT, the switch fluorescence ratio is reported as 0.995. CTAGGATATC gave a switch fluorescence ratio of 1.01. Work on TCTTAGTAAG yielded a switch fluorescence ratio of 0.997. In the case of CTAAGCCAGA, the switch fluorescence ratio is reported as 1.06. ACCAGACTGA showed a switch fluorescence ratio of 1.1. GTGTGAAGTC gave a switch fluorescence ratio of 0.981. TTTTTGACAT showed a switch fluorescence ratio of 0.955. Sequence GTTTTGCGCA has a switch fluorescence ratio of 1. AGGGTGGCTC showed a switch fluorescence ratio of 0.962. With GCGTGCTTGT the switch fluorescence ratio was 0.991. In the case of GCAATTCCTA, the switch fluorescence ratio is reported as 1.1. GAAAATGACA gave a switch fluorescence ratio of 1.01. TCCTCATACC showed a switch fluorescence ratio of 1.64. Work on TGCCCAGTCC yielded a switch fluorescence ratio of 0.966. GGTTCAATGT showed a switch fluorescence ratio of 0.997. In the case of GGGACGCTCG, the switch fluorescence ratio is reported as 0.956. With CAGTAAGTTT the switch fluorescence ratio was 0.981. Sequence ACGTAAATTA has a switch fluorescence ratio of 1.59. For TTACGTTCAA, the switch fluorescence ratio was 1.12. In the case of AGTAAGTTAT, the switch fluorescence ratio is reported as 1.01. GGCCACTGGC showed a switch fluorescence ratio of 1.09. TTGTTGTACC gave a switch fluorescence ratio of 0.982. Work on TTCGAATAGC yielded a switch fluorescence ratio of 1. For TTTGAAATCG, the switch fluorescence ratio was 1.03. For GATGACATCA, the switch fluorescence ratio was 0.974. With CCGGATGTGG the switch fluorescence ratio was 1.01. For TCCTACTATC, the switch fluorescence ratio was 1.16. GGAATGAATC showed a switch fluorescence ratio of 1. For TTCCTGAGCA, the switch fluorescence ratio was 1.81. Sequence GGTGCCGGCA has a switch fluorescence ratio of 1. Work on AGGGAGGT yielded a switch fluorescence ratio of 1. AAAGACTTT showed a switch fluorescence ratio of 1.02. Sequence CTTTTTGAGA has a switch fluorescence ratio of 1.02. AGCGCGAAAG gave a switch fluorescence ratio of 0.954. With CGCCCACGGT the switch fluorescence ratio was 1.54. With AGATGACCGT the switch fluorescence ratio was 1.04. GAGAGAGGTA gave a switch fluorescence ratio of 0.941. Sequence GCACGGGCTC has a switch fluorescence ratio of 0.972. In the case of TGGGTATCAG, the switch fluorescence ratio is reported as 1. CTTCAATCGG gave a switch fluorescence ratio of 0.981. Work on TCCTGGCGGA yielded a switch fluorescence ratio of 1.03. TCCGCATGTA was tested, and the switch fluorescence ratio was 3.56. CGATAGTAAA was tested, and the switch fluorescence ratio was 1.01. For TGTTAGAGTT, the switch fluorescence ratio was 1.03. TTACTTCCCT showed a switch fluorescence ratio of 1.17. Sequence CGCGTCTCGA has a switch fluorescence ratio of 1.03. For GTTCAAAACT, the switch fluorescence ratio was 1.03. TGGAAGTTTA showed a switch fluorescence ratio of 1.02. GTCATGGTTG was tested, and the switch fluorescence ratio was 0.938. With CAAGCTAGAA the switch fluorescence ratio was 1.03. With ACCAACGTGC the switch fluorescence ratio was 1.36. With AGTTGAATGA the switch fluorescence ratio was 1.06. CGGGAGCTAG was tested, and the switch fluorescence ratio was 1.03. For TGCTAGGATT, the switch fluorescence ratio was 0.951. With AGTCTCATTA the switch fluorescence ratio was 1.02. TGTCTTGCCC gave a switch fluorescence ratio of 1.02. Sequence TAGTAGGAGA has a switch fluorescence ratio of 1.03. CTAGCGGGGA showed a switch fluorescence ratio of 1.05. CGTAATCGTA was tested, and the switch fluorescence ratio was 1.02. In the case of GGAGGACAGT, the switch fluorescence ratio is reported as 0.986. Sequence ATGTTGTTTC has a switch fluorescence ratio of 0.952. In the case of GGTGCGAACA, the switch fluorescence ratio is reported as 0.991. Work on TTGACGTCTT yielded a switch fluorescence ratio of 0.952. GCGTGAAATT showed a switch fluorescence ratio of 1. In the case of AACTTACTAA, the switch fluorescence ratio is reported as 1.15. AATCAAAGGT showed a switch fluorescence ratio of 1.03. For GACGGAGGAA, the switch fluorescence ratio was 1.38. In the case of TGGAGCGCAT, the switch fluorescence ratio is reported as 1.16. TGTCCTTTAG was tested, and the switch fluorescence ratio was 0.959. AGCTTTAGG gave a switch fluorescence ratio of 1.02. Work on CCTAGGGAAT yielded a switch fluorescence ratio of 1.1. GGAGACGTAG gave a switch fluorescence ratio of 0.938. With GAGTACTTTA the switch fluorescence ratio was 1.02. AAGTCAATGG showed a switch fluorescence ratio of 1.24. With TATCGGCCGG the switch fluorescence ratio was 0.977. With AATCAGGC the switch fluorescence ratio was 0.974. In the case of GTGGCTTTGC, the switch fluorescence ratio is reported as 0.937. CACAAGTCCG was tested, and the switch fluorescence ratio was 1.09. CACCTACCTA gave a switch fluorescence ratio of 1.29. For AAATTCCATA, the switch fluorescence ratio was 0.994. ACGGAAGCAA was tested, and the switch fluorescence ratio was 1.27. Sequence TAATTAAC has a switch fluorescence ratio of 0.947. Work on CATGCGGCAT yielded a switch fluorescence ratio of 1. ATCGGGCGGC gave a switch fluorescence ratio of 1. For GGCGCTTCTG, the switch fluorescence ratio was 0.92. Sequence ATCACCGATA has a switch fluorescence ratio of 1.08. Work on ATCGCTTGTA yielded a switch fluorescence ratio of 1.02. Work on TAACATACGA yielded a switch fluorescence ratio of 1.25. With AGTTGAGAGT the switch fluorescence ratio was 1.02. GGACCATTGT was tested, and the switch fluorescence ratio was 0.977. AGGATGTTAC gave a switch fluorescence ratio of 1.01. Work on GGATCAGTCC yielded a switch fluorescence ratio of 1.03. Work on TCCGAGGTGC yielded a switch fluorescence ratio of 2.85. AAGGGCCTTT showed a switch fluorescence ratio of 1.02. TTGGGCCTAG gave a switch fluorescence ratio of 0.965. Work on TTAGACGGAT yielded a switch fluorescence ratio of 0.961. Sequence TACATCGCGC has a switch fluorescence ratio of 1.12. TGTTAAAAGT showed a switch fluorescence ratio of 1.08. Sequence TTTGTCGTGG has a switch fluorescence ratio of 1.13. In the case of ACTTTACATT, the switch fluorescence ratio is reported as 1.3.
